Measurements from US20040175357A1 (Bayer, published 2004).

Assays:
[1] = biological target: T1, intermediate affinity IL-2 receptor IL-2Rβγ on human NK cells (human, UniProt P14784 27-551; P31785 23-369); assay: cell-based or functional assay
T1 sequence (looked up) 1: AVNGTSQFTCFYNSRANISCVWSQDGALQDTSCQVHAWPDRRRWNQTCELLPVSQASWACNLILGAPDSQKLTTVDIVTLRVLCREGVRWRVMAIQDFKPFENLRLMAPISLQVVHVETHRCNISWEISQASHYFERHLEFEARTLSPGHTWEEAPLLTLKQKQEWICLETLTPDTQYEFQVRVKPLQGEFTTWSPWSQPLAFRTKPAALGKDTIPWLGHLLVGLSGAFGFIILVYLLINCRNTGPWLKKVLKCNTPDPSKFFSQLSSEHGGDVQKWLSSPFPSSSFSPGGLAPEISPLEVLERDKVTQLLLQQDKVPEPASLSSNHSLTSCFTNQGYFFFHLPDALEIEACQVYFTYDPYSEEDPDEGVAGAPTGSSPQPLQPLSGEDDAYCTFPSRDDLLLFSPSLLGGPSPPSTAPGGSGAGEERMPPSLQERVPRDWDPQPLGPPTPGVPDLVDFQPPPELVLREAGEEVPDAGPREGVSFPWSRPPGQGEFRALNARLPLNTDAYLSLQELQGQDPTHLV
T1 sequence (looked up) 2: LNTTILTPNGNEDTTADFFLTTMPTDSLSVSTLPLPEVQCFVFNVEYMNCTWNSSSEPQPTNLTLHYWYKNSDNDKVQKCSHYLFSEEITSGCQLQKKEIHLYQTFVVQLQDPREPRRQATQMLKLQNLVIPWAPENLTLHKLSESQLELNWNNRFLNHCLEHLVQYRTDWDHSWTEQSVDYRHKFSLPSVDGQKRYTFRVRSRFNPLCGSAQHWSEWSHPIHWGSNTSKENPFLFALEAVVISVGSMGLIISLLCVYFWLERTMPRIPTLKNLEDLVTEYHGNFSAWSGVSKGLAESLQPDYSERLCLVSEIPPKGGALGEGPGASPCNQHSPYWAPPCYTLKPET

[2] = biological target: T2, high affinity IL-2 receptor IL-2Rαβγ on human PHA-blasts (activated T cells) (human, UniProt P01589 22-272; P14784 27-551; P31785 23-369); assay: cell-based or functional assay
T2 sequence (looked up) 1: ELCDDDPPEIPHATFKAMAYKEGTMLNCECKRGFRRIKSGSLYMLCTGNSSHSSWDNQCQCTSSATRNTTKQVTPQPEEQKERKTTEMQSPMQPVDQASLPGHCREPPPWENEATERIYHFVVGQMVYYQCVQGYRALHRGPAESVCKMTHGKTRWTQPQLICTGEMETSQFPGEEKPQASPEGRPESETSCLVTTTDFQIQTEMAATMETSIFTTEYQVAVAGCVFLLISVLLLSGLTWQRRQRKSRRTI
T2 sequence (looked up) 2: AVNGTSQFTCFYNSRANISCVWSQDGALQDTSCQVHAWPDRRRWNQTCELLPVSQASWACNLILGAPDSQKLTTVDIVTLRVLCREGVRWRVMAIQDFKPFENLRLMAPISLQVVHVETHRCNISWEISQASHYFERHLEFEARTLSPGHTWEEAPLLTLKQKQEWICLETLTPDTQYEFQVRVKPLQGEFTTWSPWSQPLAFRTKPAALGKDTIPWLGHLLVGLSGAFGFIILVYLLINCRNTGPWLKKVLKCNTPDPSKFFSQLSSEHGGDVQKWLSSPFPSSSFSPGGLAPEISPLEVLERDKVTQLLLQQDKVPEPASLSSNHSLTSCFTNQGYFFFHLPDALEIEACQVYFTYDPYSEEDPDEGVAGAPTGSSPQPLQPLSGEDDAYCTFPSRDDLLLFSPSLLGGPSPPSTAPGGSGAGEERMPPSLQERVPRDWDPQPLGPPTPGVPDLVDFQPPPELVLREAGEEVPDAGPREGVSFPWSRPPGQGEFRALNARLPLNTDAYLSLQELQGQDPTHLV
T2 sequence (looked up) 3: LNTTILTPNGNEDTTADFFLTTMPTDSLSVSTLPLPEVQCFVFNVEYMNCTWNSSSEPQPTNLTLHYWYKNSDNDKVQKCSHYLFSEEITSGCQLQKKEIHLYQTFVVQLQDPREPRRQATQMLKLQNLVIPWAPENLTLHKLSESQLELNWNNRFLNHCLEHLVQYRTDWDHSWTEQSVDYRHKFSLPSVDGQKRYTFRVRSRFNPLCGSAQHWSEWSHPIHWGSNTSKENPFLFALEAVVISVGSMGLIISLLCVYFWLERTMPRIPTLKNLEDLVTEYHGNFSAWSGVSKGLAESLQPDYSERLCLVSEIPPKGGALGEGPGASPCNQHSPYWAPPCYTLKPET

B1: human IL-2 mutein N88S (ligand)
chain: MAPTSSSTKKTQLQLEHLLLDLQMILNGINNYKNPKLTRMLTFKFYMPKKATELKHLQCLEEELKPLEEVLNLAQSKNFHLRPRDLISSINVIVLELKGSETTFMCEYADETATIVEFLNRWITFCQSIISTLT
[1]
  relative activity, NK cell (NK cell proliferation): 0.16 relative to wt IL-2 (EC50)

B2: human IL-2 mutein N88T (ligand)
chain: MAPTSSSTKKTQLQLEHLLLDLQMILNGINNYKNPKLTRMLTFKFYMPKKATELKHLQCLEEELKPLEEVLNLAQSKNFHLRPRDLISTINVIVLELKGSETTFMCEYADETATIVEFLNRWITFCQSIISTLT
[2]
  relative activity, T cell (PHA-blast proliferation): 0.5 relative to wt IL-2 (EC50)
[1]
  relative activity, NK cell (NK cell proliferation): 0.00127 relative to wt IL-2 (EC50)

B3: human IL-2 mutein N88V (ligand)
chain: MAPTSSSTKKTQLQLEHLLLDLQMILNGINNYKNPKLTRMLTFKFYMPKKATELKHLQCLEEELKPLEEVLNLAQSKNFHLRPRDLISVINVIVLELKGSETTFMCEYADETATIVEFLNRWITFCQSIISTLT
[2]
  relative activity, T cell (PHA-blast proliferation): 0.0667 relative to wt IL-2 (EC50)
[1]
  relative activity, NK cell (NK cell proliferation): 0.001 relative to wt IL-2 (EC50)

B4: human IL-2 mutein N88W (ligand)
chain: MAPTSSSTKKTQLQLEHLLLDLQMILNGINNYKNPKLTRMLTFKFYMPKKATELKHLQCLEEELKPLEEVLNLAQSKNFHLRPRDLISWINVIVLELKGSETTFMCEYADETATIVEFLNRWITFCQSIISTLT
[2]
  relative activity, T cell (PHA-blast proliferation): 0.001 relative to wt IL-2 (EC50)
[1]
  relative activity, NK cell (NK cell proliferation): 0.001 relative to wt IL-2 (EC50)

B5: human IL-2 mutein N88Y (ligand)
chain: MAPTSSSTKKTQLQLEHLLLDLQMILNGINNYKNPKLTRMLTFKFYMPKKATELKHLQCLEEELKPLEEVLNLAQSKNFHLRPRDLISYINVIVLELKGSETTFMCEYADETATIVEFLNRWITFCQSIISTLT
[2]
  relative activity, T cell (PHA-blast proliferation): 0.008 relative to wt IL-2 (EC50)
[1]
  relative activity, NK cell (NK cell proliferation): 0.001 relative to wt IL-2 (EC50)

B6: human IL-2 mutein Q126A (ligand)
chain: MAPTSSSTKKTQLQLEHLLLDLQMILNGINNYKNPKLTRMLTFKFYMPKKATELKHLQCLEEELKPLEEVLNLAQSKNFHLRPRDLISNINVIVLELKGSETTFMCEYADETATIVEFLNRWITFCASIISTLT
[2]
  relative activity, T cell (PHA-blast proliferation): 0.0174 relative to wt IL-2 (EC50)
[1]
  relative activity, NK cell (NK cell proliferation): 0.0581 relative to wt IL-2 (EC50)

B7: human IL-2 mutein Q126D (ligand)
chain: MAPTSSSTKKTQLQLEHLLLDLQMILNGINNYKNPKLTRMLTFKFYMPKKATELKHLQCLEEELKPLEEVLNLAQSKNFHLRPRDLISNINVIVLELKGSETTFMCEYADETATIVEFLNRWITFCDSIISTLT
[2]
  relative activity, T cell (PHA-blast proliferation): 0.146 relative to wt IL-2 (EC50)
[1]
  relative activity, NK cell (NK cell proliferation): 0.00061 relative to wt IL-2 (EC50)

B8: human IL-2 mutein Q126F (ligand)
chain: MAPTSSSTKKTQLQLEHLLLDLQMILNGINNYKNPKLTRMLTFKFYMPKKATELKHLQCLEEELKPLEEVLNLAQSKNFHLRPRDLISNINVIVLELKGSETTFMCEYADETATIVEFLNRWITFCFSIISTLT
[2]
  relative activity, T cell (PHA-blast proliferation): 0.874 relative to wt IL-2 (EC50)
[1]
  relative activity, NK cell (NK cell proliferation): 0.0275 relative to wt IL-2 (EC50)

B9: human IL-2 mutein Q126G (ligand)
chain: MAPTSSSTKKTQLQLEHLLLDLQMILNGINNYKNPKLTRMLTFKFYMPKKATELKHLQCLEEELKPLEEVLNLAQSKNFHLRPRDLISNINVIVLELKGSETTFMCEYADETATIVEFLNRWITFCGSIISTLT
[2]
  relative activity, T cell (PHA-blast proliferation): 0.556 relative to wt IL-2 (EC50)
[1]
  relative activity, NK cell (NK cell proliferation): 0.00556 relative to wt IL-2 (EC50)

B10: human IL-2 mutein Q126H (ligand)
chain: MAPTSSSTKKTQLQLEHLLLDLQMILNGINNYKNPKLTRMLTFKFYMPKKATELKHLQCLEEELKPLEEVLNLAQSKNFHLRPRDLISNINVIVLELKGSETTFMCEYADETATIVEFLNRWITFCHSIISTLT
[2]
  relative activity, T cell (PHA-blast proliferation): 0.0222 relative to wt IL-2 (EC50)
[1]
  relative activity, NK cell (NK cell proliferation): 0.739 relative to wt IL-2 (EC50)

B11: human IL-2 mutein Q126I (ligand)
chain: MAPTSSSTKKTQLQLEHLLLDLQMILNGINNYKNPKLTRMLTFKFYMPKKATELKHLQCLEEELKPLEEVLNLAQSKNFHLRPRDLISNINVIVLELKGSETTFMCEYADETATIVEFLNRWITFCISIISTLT
[2]
  relative activity, T cell (PHA-blast proliferation): 0.001 relative to wt IL-2 (EC50)
[1]
  relative activity, NK cell (NK cell proliferation): 3e-05 relative to wt IL-2 (EC50)

B12: human IL-2 mutein Q126K (ligand)
chain: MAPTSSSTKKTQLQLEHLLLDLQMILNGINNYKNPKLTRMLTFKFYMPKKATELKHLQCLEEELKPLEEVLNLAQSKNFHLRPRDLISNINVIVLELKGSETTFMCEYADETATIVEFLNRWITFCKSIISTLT
[2]
  relative activity, T cell (PHA-blast proliferation): 1 relative to wt IL-2 (EC50)
[1]
  relative activity, NK cell (NK cell proliferation): 1 relative to wt IL-2 (EC50)

B13: human IL-2 mutein Q126M (ligand)
chain: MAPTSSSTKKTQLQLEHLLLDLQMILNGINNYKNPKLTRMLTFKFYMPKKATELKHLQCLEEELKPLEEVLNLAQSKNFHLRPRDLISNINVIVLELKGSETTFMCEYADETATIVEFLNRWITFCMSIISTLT
[2]
  relative activity, T cell (PHA-blast proliferation): 19.9 relative to wt IL-2 (EC50)
[1]
  relative activity, NK cell (NK cell proliferation): 2.19 relative to wt IL-2 (EC50)

B14: human IL-2 mutein Q126N (ligand)
chain: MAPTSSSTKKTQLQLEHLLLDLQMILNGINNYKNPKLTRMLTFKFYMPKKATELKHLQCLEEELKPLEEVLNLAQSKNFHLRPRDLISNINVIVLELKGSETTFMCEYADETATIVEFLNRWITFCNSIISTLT
[2]
  relative activity, T cell (PHA-blast proliferation): 6.58 relative to wt IL-2 (EC50)
[1]
  relative activity, NK cell (NK cell proliferation): 0.65 relative to wt IL-2 (EC50)

B15: human IL-2 mutein Q126P (ligand)
chain: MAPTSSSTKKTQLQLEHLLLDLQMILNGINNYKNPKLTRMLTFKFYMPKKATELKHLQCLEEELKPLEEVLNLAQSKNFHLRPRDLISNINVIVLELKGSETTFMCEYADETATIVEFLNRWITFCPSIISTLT
[2]
  relative activity, T cell (PHA-blast proliferation): 0.00032 relative to wt IL-2 (EC50)
[1]
  relative activity, NK cell (NK cell proliferation): 0.00011 relative to wt IL-2 (EC50)

B16: human IL-2 mutein Q126R (ligand)
chain: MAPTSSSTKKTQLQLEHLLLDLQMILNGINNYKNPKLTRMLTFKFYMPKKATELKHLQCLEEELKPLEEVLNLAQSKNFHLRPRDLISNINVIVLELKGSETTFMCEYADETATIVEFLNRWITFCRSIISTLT
[2]
  relative activity, T cell (PHA-blast proliferation): 4.03 relative to wt IL-2 (EC50)
[1]
  relative activity, NK cell (NK cell proliferation): 0.364 relative to wt IL-2 (EC50)

B17: human IL-2 mutein Q126S (ligand)
chain: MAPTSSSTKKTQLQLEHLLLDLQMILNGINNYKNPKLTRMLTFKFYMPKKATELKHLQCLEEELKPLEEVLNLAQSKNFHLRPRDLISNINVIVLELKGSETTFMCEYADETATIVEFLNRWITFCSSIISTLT
[2]
  relative activity, T cell (PHA-blast proliferation): 0.0342 relative to wt IL-2 (EC50)
[1]
  relative activity, NK cell (NK cell proliferation): 0.00103 relative to wt IL-2 (EC50)

B18: human IL-2 mutein Q126T (ligand)
chain: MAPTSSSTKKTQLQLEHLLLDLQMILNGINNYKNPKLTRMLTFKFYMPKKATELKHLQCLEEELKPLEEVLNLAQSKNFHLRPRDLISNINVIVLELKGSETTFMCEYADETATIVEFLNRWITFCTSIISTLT
[2]
  relative activity, T cell (PHA-blast proliferation): 0.0001 relative to wt IL-2 (EC50)
[1]
  relative activity, NK cell (NK cell proliferation): 3e-05 relative to wt IL-2 (EC50)

B19: human IL-2 mutein Q126V (ligand)
chain: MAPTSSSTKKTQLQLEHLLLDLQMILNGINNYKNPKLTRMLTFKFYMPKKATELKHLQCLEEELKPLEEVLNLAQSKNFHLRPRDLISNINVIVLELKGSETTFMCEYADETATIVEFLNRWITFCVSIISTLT
[2]
  relative activity, T cell (PHA-blast proliferation): 1.01 relative to wt IL-2 (EC50)
[1]
  relative activity, NK cell (NK cell proliferation): 0.00302 relative to wt IL-2 (EC50)

B20: human IL-2 mutein Q126W (ligand)
chain: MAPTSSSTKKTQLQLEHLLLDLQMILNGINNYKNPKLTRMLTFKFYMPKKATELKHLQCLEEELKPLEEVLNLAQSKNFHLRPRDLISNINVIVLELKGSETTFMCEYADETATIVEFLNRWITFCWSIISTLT
[2]
  relative activity, T cell (PHA-blast proliferation): 0.2 relative to wt IL-2 (EC50)
[1]
  relative activity, NK cell (NK cell proliferation): 0.2 relative to wt IL-2 (EC50)

B21: human IL-2 mutein Q126Y (ligand)
chain: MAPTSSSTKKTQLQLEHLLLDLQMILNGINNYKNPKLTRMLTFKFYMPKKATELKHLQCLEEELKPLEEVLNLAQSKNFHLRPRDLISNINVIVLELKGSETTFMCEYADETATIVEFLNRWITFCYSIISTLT
[2]
  relative activity, T cell (PHA-blast proliferation): 0.885 relative to wt IL-2 (EC50)
[1]
  relative activity, NK cell (NK cell proliferation): 0.0885 relative to wt IL-2 (EC50)
